Results as given in the supplement of paper PMC9446081.
The campaign covered roughly 39,000 compounds. About 220 (0.56%) showed activity. The list shows a part of the results.

These molecules were tested on Escherichia coli K-12 BW25113 (assay: relative growth (OD600 normalised to plate interquartile mean) (fraction); higher = less growth inhibition, active = 0.2 or less). Settings: 50 µM; LB; incubation time: overnight (16-24 h).
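Further: static incubation at 37 °C against the wild-type strain, values averaged over two biological replicates.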

Compound | relative growth
C[C@@H]1CN([C@H](C)CO)C(=O)c2cc(NS(C)(=O)=O)ccc2O[C@H]1CN(C)S(=O)(=O)c1ccc(F)cc1 | inactive: 1.01
C[C@@H]1CN([C@H](C)CO)C(=O)c2cc(NS(=O)(=O)c3ccc(F)cc3)ccc2O[C@H]1CN(C)Cc1ccc(Cl)c(Cl)c1 | inactive: 1.01
C[C@@H]1CCCCO[C@@H](CN(C)CC2CC2)[C@@H](C)CN([C@H](C)CO)C(=O)c2cc(NS(=O)(=O)c3ccc(Cl)cc3)ccc2O1 | inactive: 0.989
C[C@H](CO)N1C[C@H](C)[C@@H](CN(C)Cc2ccc3c(c2)OCO3)Oc2ccc(NC(=O)Nc3ccc(C(F)(F)F)cc3)cc2C1=O | inactive: 0.852
CCS(=O)(=O)N1CCCn2c(nc(Cn3cncn3)cc2=O)C1 | inactive: 0.985
NC(=S)NCc1ccco1 | inactive: 1.01
COc1ccc(CN(C)C[C@@H]2OCCCC[C@@H](C)Oc3ccc(NC(=O)Nc4c(C)noc4C)cc3C(=O)N([C@H](C)CO)C[C@@H]2C)cc1 | inactive: 0.995
C[C@H]1CN([C@@H](C)CO)C(=O)c2cc(NC(=O)C3CCCCC3)ccc2O[C@@H]1CN(C)Cc1ccc(Oc2ccccc2)cc1 | inactive: 0.972
C[C@@H]1CCCCO[C@@H](CN(C)C(=O)Nc2ccc(F)cc2)[C@@H](C)CN([C@@H](C)CO)C(=O)c2cc(NC(=O)Nc3ccc(F)cc3)ccc2O1 | inactive: 1.01
O=c1[nH]c2cc(C(F)(F)F)c(N3CCOCC3)cc2n(CP(=O)(O)O)c1=O | inactive: 1.03
Cc1noc(C)c1S(=O)(=O)Nc1ccc2c(c1)C(=O)N([C@H](C)CO)C[C@@H](C)[C@H](CN(C)CC1CC1)O2 | inactive: 1.01
COc1ccc(-c2cc(=O)c3c(OC)c(OC)c(OC)c(OC)c3o2)cc1 | inactive: 0.933
O=c1ncccn1[C@H]1O[C@H](CO)[C@@H](O)[C@@H]1O | inactive: 0.636
C[C@@H]1CCCCO[C@H](CN(C)C(=O)C2CCCCC2)[C@@H](C)CN([C@@H](C)CO)C(=O)c2cc(NC(=O)Nc3ccccc3)ccc2O1 | inactive: 1.01
C[C@@H]1CN([C@H](C)CO)C(=O)c2cc(NC(=O)Nc3cccc4ccccc34)ccc2O[C@H]1CN(C)Cc1ccc(C(=O)Nc2ccccc2N)cc1 | inactive: 0.997
C[C@H]1CN([C@@H](C)CO)C(=O)Cc2cc(NC(=O)c3ccncc3)ccc2O[C@H]1CN(C)Cc1ccc(C(=O)O)cc1 | inactive: 0.959
CN[C@@H]1[C@H](O[C@H]2[C@H](O[C@@H]3[C@@H](O)[C@H](O)[C@@H](NC(=N)N)[C@H](O)[C@H]3NC(=N)N)O[C@@H](C)[C@]2(O)CO)O[C@@H](CO)[C@H](O)[C@H]1O.CN[C@@H]1[C@H](O[C@H]2[C@H](O[C@@H]3[C@@H](O)[C@H](O)[C@@H](NC(=N)N)[C@H](O)[C@H]3NC(=N)N)O[C@@H](C)[C@]2(O)CO)O[C@@H](CO)[C@H](O)[C@H]1O | active: 0.11
C[C@@H]1CN([C@H](C)CO)C(=O)c2ccccc2-c2ccccc2CO[C@@H]1CN(C)C(=O)N[C@H](C)c1ccccc1 | inactive: 1.01

Compound | relative growth
C[C@H]1CN([C@@H](C)CO)C(=O)c2cccc(NS(=O)(=O)c3ccc(Cl)cc3)c2O[C@@H]1CN(C)S(=O)(=O)c1cn(C)cn1 | inactive: 0.975
C[C@@H]1CN([C@@H](C)CO)C(=O)c2cc(NC(=O)Nc3ccc(F)cc3)ccc2O[C@H]1CN(C)S(=O)(=O)c1cn(C)cn1 | inactive: 1.02
C[C@@H]1CCCCO[C@H](CN(C)C(=O)Nc2ccc3c(c2)OCO3)[C@H](C)CN([C@@H](C)CO)C(=O)c2cc(NC(=O)Nc3ccccc3)ccc2O1 | inactive: 1.02
C[C@@H]1CCCCO[C@@H](CN(C)S(C)(=O)=O)[C@H](C)CN([C@H](C)CO)C(=O)c2cc(NS(=O)(=O)c3cn(C)cn3)ccc2O1 | inactive: 0.996
Cl.Cl.Fc1ccc(C(c2ccc(F)cc2)N2CCN(CC=Cc3ccccc3)CC2)cc1 | inactive: 0.939
CCCC#Cc1ccc2c(c1)O[C@@H](CN(C)Cc1ccc3c(c1)OCO3)[C@@H](C)CN([C@@H](C)CO)S2(=O)=O | inactive: 1.01
Cc1noc(C)c1S(=O)(=O)Nc1ccc2c(c1)C(=O)N([C@H](C)CO)C[C@H](C)[C@H](CN(C)Cc1ccc(Cl)c(Cl)c1)OCCCC[C@@H](C)O2 | inactive: 0.981
Cc1noc(C)c1S(=O)(=O)N(C)C[C@@H]1Oc2ccc(NC(=O)CCCN(C)C)cc2CC(=O)N([C@@H](C)CO)C[C@H]1C | inactive: 0.986
C[C@H]1CN([C@@H](C)CO)C(=O)c2cccc(NC(=O)C3CCCCC3)c2O[C@@H]1CN(C)Cc1ccc(C(F)(F)F)cc1 | inactive: 0.935
C=CCOC(=O)O[C@H]1[C@@H](OC)O[C@H](COC(=O)NCCCCCC(=O)NO)[C@@H](OC(=O)[C@H](CC=C)Cc2cccc(Br)c2)[C@@H]1OC(=O)[C@H](CC=C)Cc1ccccc1 | inactive: 1
C[C@@H]1CCCCO[C@H](CN(C)S(=O)(=O)c2ccccc2)[C@H](C)CN([C@@H](C)CO)C(=O)c2cc(NC(=O)Nc3cccc4ccccc34)ccc2O1 | inactive: 1.05
COc1ccc(NC(=O)Nc2ccc3c(c2)C(=O)N([C@@H](C)CO)C[C@@H](C)[C@H](CN(C)C(=O)Nc2ccccc2)OCCCC[C@H](C)O3)cc1 | inactive: 1.04
NC1C(OC2C(C(=O)[O-])OC(COC3C(CO)OC(O)C(O)C3O)C(OS(=O)(=O)[O-])C2O)OC(COS(=O)(=O)[O-])C(O)C1O (stereo not given) | inactive: 1.01
CC(C)=CCc1c(O)cc2oc(C)cc(=O)c2c1O | inactive: 0.958
COc1ccccc1C#Cc1cnc2c(c1)C(=O)N([C@H](C)CO)C[C@H](C)[C@H](CN(C)C(=O)CN(C)C)O2 | inactive: 0.992
C[C@H](CO)N1C[C@H](C)[C@H](CN(C)C(=O)NC2CCCCC2)Oc2ncc(C#CC(C)(C)O)cc2C1=O | inactive: 1.03
C[C@H](CO)N1C[C@H](C)[C@H](CN(C)C(=O)CCCN(C)C)OCc2cnnn2CCCC1=O | inactive: 0.947
